This is one part of the list. Sequences were assembled here from the parent chain. Inactive controls read about 0.05.
B1: TEV protease; numbered along this chain (parent)
chain: MGESLFKGPRDYNPISSSICHLTNESDGHTTSLYGIGFGPFIITNKHLFRRNNGTLVVQSLHGVFKVKDTTTLQQHLVDGRDMIIIRMPKDFPPFPQKLKFREPQREERICLVTTNFQTKSMSSMVSDTSCTFPSGDGIFWKHWIQTKDGQCGSPLVSTRDGFIVGIHSASNFTNTNNYFTSVPKNFMELLTNQEAQQWVSGWRLNADSVLWGGHKVFMVKPEEPFQPVKEATQL

Variants of: B1
Experiment: raw area under fraction-flipped curve 0-4 h after induction (AUC4h, not background-subtracted), DNA-recorder readout of cleavage of the substrate (dimensionless); higher = more cleavage of the substrate by the protease variant
Conditions: temperature: 34 °C; time window: 0-4 h after rhamnose induction
Method: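 In vivo DNA recorder in E. coli TOP10(DE3) ΔrhaA at 34 °C. Each TEVp single-site mutant (parent TEVp 0) is paired with a single-site variant of the 7-mer TEVs (canonical ENLYFQ|S). The substrate sits between flexible linkers in a Bxb1-sfGFP-TEVs-SsrA fusion, so cleavage stabilises Bxb1 and speeds flipping of a recombination array, read by NGS. The value is the raw area under the fraction-flipped curve over 0-4 h after rhamnose induction (AUC4h), with ≥20 reads per time point. It is not background-subtracted; inactive controls average about 0.047.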
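Further: Bxb1 expression induced with 0.2% (w/v) L-rhamnose at OD600 near 0.5, cultures sampled hourly, flipped fraction per protease–substrate barcode pair counted by paired-end Illumina sequencing.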

| Variant | area with substrate ENLYFQA | area with substrate ENLYFQC | area with substrate ENLYFQG | area with substrate ENLYFQH | area with substrate ENLYFQK | area with substrate ENLYFQM | area with substrate ENLYFQN | area with substrate ENLYFQP | area with substrate ENLYFQQ | area with substrate ENLYFQS | area with substrate ENLYFQW | area with substrate ENLYFQI | area with substrate ENLYFQL | area with substrate ENLYFQR | area with substrate ENLYFQT | area with substrate ENLYFQV | area with substrate ENLYFQY | area with substrate ENLYFQF | area with substrate ENLYFQD | area with substrate ENLYFQE |
| --- | --- | --- | --- | --- | --- | --- | --- | --- | --- | --- | --- | --- | --- | --- | --- | --- | --- | --- | --- | --- |
| K142A | 0.0815 | 0.103 | 0.102 | 0.0734 | 0.0263 | 0.0842 | 0.0681 | 0.0586 | 0.0837 | 0.0878 | 0.0726 |  |  |  |  |  |  |  |  |  |
| F117S | 0.148 | 0.147 |  | 0.0855 | 0.0728 | 0.083 |  |  |  | 0.11 | 0.0754 | 0.0695 | 0.067 | 0.0643 | 0.0724 | 0.0504 |  |  |  |  |
| F117C | 0.0999 | 0.131 | 0.087 |  | 0.0759 | 0.0574 | 0.074 | 0.044 |  | 0.103 | 0.0694 | 0.0513 | 0.0534 | 0.0602 | 0.0673 |  | 0.0628 |  |  |  |
| Q74Y | 0.0865 | 0.103 | 0.0956 | 0.0739 | 0.0558 |  |  |  |  | 0.0956 | 0.0519 | 0.0557 | 0.0599 |  | 0.0678 | 0.0558 | 0.0619 | 0.0661 |  |  |
| K90S | 0.0954 | 0.126 | 0.0799 | 0.107 |  | 0.0599 |  |  |  | 0.0903 |  | 0.0561 | 0.0684 | 0.0593 | 0.0675 | 0.0562 | 0.0575 |  |  |  |
| D79P | 0.0924 | 0.0765 |  |  |  |  |  |  |  | 0.104 | 0.0722 | 0.057 |  | 0.0679 |  |  |  |  |  |  |
| E189F | 0.0781 | 0.104 | 0.0907 |  | 0.0698 |  | 0.0791 | 0.0626 | 0.0617 | 0.099 |  | 0.0519 | 0.0771 | 0.0987 | 0.0642 | 0.0483 | 0.0845 | 0.0753 |  |  |
| Y179F | 0.0678 | 0.0908 |  |  |  | 0.0672 |  |  |  | 0.0902 |  | 0.0548 | 0.0768 |  | 0.0993 |  |  |  |  |  |
| R106V | 0.105 |  | 0.114 |  | 0.0715 |  | 0.0783 | 0.0548 |  | 0.105 | 0.0662 | 0.0641 |  |  |  |  |  |  |  |  |
| S130K | 0.0683 | 0.0934 | 0.0513 | 0.0796 | 0.0521 | 0.0759 | 0.0661 | 0.054 |  | 0.0907 | 0.0416 | 0.0346 | 0.0626 | 0.0621 | 0.0497 | 0.0528 | 0.0604 |  | 0.0579 |  |
| N52A | 0.0661 | 0.0696 | 0.0744 | 0.0704 | 0.0607 | 0.047 | 0.0648 | 0.0589 |  | 0.0778 | 0.0601 |  | 0.0572 | 0.0623 | 0.0679 |  | 0.065 |  |  | 0.0572 |
| R81Y | 0.0826 | 0.0915 | 0.0859 | 0.0766 | 0.057 | 0.0866 | 0.071 |  |  | 0.0806 | 0.0616 | 0.0639 | 0.0618 | 0.0732 | 0.056 | 0.0599 | 0.0622 |  | 0.0582 |  |
| L211R | 0.0846 | 0.0844 |  |  | 0.0703 |  | 0.0829 |  | 0.0538 | 0.102 |  | 0.0546 | 0.0326 | 0.0645 |  |  |  |  |  |  |
| A196S | 0.0778 |  | 0.101 | 0.0779 |  |  | 0.0823 | 0.0517 |  | 0.0908 | 0.0566 | 0.0629 | 0.0636 | 0.0683 | 0.0736 | 0.0613 |  |  | 0.0648 |  |
| T159N | 0.0654 |  | 0.108 |  |  |  |  | 0.053 | 0.0828 | 0.104 | 0.0603 | 0.0246 |  | 0.064 | 0.0706 |  |  |  |  |  |
| Q146H | 0.0869 |  | 0.0887 | 0.0665 | 0.0602 | 0.0833 | 0.0722 | 0.0587 | 0.0775 | 0.108 | 0.0866 | 0.057 | 0.0718 | 0.0606 | 0.0386 | 0.0582 | 0.0799 |  | 0.0671 |  |
| F41H | 0.0835 | 0.0999 | 0.0737 | 0.107 | 0.0913 |  | 0.0695 | 0.0617 | 0.0904 | 0.0928 | 0.0747 | 0.0357 | 0.0547 | 0.066 | 0.0569 |  |  | 0.0655 |  | 0.0337 |
| E223V | 0.0748 |  | 0.104 |  |  | 0.102 |  | 0.0899 | 0.0866 | 0.0929 |  | 0.0757 |  |  | 0.0679 |  |  |  | 0.0737 | 0.0504 |
| P94R | 0.0804 | 0.12 | 0.0992 |  | 0.0665 | 0.128 |  |  |  | 0.102 | 0.0747 | 0.0368 | 0.0665 |  | 0.0622 |  |  | 0.069 |  |  |
| T174N | 0.12 |  |  |  | 0.0555 | 0.066 | 0.07 |  | 0.0613 | 0.107 | 0.0746 |  | 0.0853 | 0.0666 | 0.0591 |  |  |  | 0.0564 |  |
| V113R | 0.0382 | 0.084 | 0.0682 | 0.0637 | 0.0649 | 0.0493 | 0.0681 | 0.0665 |  | 0.0723 | 0.0609 | 0.0605 | 0.0472 | 0.0659 | 0.0616 |  | 0.0611 | 0.0622 |  |  |
| S127W | 0.133 | 0.118 |  |  | 0.0665 | 0.123 | 0.0694 | 0.0654 |  | 0.112 | 0.0602 |  | 0.066 | 0.0501 | 0.0577 | 0.0649 |  | 0.0715 |  | 0.0627 |
| E25M | 0.121 | 0.119 | 0.113 | 0.0945 | 0.0599 | 0.117 | 0.0864 | 0.0755 | 0.0591 | 0.105 | 0.0681 |  | 0.0573 | 0.055 | 0.0621 | 0.0567 | 0.0824 | 0.0848 | 0.0943 | 0.056 |
| F38Q | 0.0807 | 0.108 | 0.166 | 0.068 | 0.0563 | 0.0772 | 0.08 | 0.0679 |  | 0.0945 | 0.0625 | 0.0546 | 0.0518 | 0.0544 | 0.0616 | 0.0638 | 0.0656 | 0.0695 | 0.0659 |  |
| K68W | 0.131 |  |  | 0.0878 | 0.0617 | 0.0778 | 0.0708 |  | 0.0722 | 0.108 | 0.0712 | 0.0379 | 0.0679 |  |  |  | 0.0507 |  | 0.0951 | 0.108 |
| Y34V | 0.0805 | 0.112 | 0.0715 |  | 0.0608 | 0.081 | 0.0721 | 0.0683 |  | 0.0847 | 0.0662 | 0.0562 | 0.0602 | 0.0685 | 0.0683 | 0.06 |  | 0.0717 |  |  |
| R160L | 0.084 |  |  |  |  |  | 0.0709 |  | 0.0918 | 0.1 |  |  |  |  |  | 0.0564 |  |  |  |  |

Source: the supplement of paper PMC12217912
